# Experimental data from PubChem BioAssay AID720507 (National Center for Advancing Translational Sciences (NCATS), 2013).
# In all, about 2,300 compounds went through this assay and about 140 (6.1%) were called active. Inconclusive means that the source gave no clear call. Such entries were picked first, then a sample of the others. Calls come from the whole dose curve; as a rule, active = well fitted activation curve with a large enough effect; inconclusive = small, poorly fitted or top-dose-only effect; inactive = flat fitted curve, though single readings scatter. Potencies of inconclusive entries are left out as doubtful fits.
# Molecular target: D(2) dopamine receptor (Homo sapiens) (UniProt P14416)
# UniProt P14416, sequence (P14416 whole entry, looked up): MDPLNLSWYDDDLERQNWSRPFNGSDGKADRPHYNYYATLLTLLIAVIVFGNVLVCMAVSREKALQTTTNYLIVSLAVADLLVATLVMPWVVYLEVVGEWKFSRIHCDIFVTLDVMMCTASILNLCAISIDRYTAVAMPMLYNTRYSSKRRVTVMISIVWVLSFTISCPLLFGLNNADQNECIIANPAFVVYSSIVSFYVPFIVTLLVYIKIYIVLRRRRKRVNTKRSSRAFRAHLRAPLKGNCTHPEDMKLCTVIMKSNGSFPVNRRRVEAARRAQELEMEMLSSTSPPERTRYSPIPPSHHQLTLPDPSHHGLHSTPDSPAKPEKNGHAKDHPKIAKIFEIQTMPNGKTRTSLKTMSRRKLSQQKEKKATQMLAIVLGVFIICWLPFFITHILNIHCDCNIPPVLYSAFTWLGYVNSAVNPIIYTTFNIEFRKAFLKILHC
# Test: qHTS of D3 Dopamine Receptor Agonist: D2 Dopamine Receptor B-arrestin Agonist Counterscreen; note: nearly all actives have a fitted effect of over 70% in size; for activation: % of control where 0% means no effect
# Details: DiscoveRx PathHunter D2 beta-arrestin, luminescence, 90 min; series mostly up to 76.9 µM; activation: at the top concentration
# Excerpt: D3 DARs represent a very important target for the treatment of several neuropsychiatric disorders. Indeed, one of the most promising therapeutic applications for the D3 DAR is in the area of addiction and related disorders. […] These findings have been observed with a number of addictive substances including cocaine, amphetamine, nicotine, and alcohol. […] Increased D3 DAR activity can thus lead to neuroprotective and neurorestorative actions in the CNS. […] This assay is used to profile the activity of the identified D3 dopamine receptor agonist against the D2 dopamine receptor. Greater than 10% of the maximum dopamine agonist response is desired for this assay. NIH Molecular Libraries Probe Production Centers Network [MLPCN] NIH Chemical Genomics Center [NCGC] MLPCN Grant: NS064831 Assay Submitter (PI): David Sibley
# DiscoveRx D2 cells were thawed from frozen stock and seeded at 2,100 cells/ 3 uL/well media (DiscoveRx Plating Reagent 2) with MultiDrop Combi dispenser (Thermo Scientific, Logan, UT) onto white tissue culture treated 1536-well Aurora plates (Brooks Automation, Chelmsford, MA) and allowed to attach overnight at 37 deg C, 5% CO2. Next, 23 nL/well of compound solutions in DMSO were added with a pintool transfer (Kalypsis, San Diego, CA). […] The rest of the plate was dispensed with buffer only, 1 uL/well as well. The cells were stimulated by compounds or dopamine control for 90 minutes at 37 deg C, 5% CO2, after which 1.5 ul/well of DiscoveRx detection reagent was added with BioRAPTR FRD dispenser. The detection reagent was prepared by mixing of Galacton Star Substrate, Emerald II solution and PathHunter buffer (supplied by the assay kit) together at 1:5:19 proportion accordingly just prior to dispensing. The plates were incubated at ambient temperature for 1 hour and then the luminescent signal was read on ViewLux plate reader (PerkinElmer, Waltham, MA).
# Potency is the fitted concentration of half-maximal effect; tags give direction and shape of the fitted curve.
SMILES,activation,Potency
CCC(N)Cc1c[nH]c2ccccc12 (configuration not stated),inactive: -2.91%,–
CCCNC(=O)N1[C@H]2CC[C@@H]1C(C(=O)OC)=C(c1ccc(-c3ccccc3)c(F)c1)C2,–,"inconclusive [activator, single point]"
CCCCc1ccc2[nH]cc(CCN)c2c1,–,"inconclusive [activator, full curve, poor fit]"
Clc1ccccc1CN1CCN(c2ccccc2)CC1,–,"inconclusive [activator, partial curve, poor fit]"
CC(C)[C@@]1(NC(=O)[C@@H]2C[C@@H]3c4cccc5[nH]cc(c45)C[C@H]3N(C)C2)O[C@@]2(O)[C@@H]3CCCN3C(=O)[C@H](Cc3ccccc3)N2C1=O,–,"inconclusive [activator, full curve, poor fit]"
CN1C[C@H](C(=O)N[C@]2(C)O[C@@]3(O)[C@@H]4CCCN4C(=O)[C@H](Cc4ccccc4)N3C2=O)CC2c3cccc4[nH]cc(c34)C[C@H]21 (some centres not stated),–,"inconclusive [activator, full curve]"
C=CCN1CCc2cccc3c2[C@H]1Cc1ccc(O)c(O)c1-3,–,active: 0.0447 µM
NC(=O)c1ccc(OCCC(O)N2CC=C(c3ccc(F)cc3)CC2)cc1 (configuration not stated),–,"inconclusive [activator, partial curve]"
c1ccc(CCN2CCC(N3CCN(c4ccccc4)CC3)CC2)cc1,–,"inconclusive [activator, full curve]"
CCN(CC)S(=O)(=O)c1cc(NC(=O)C(C)N2CC=C(c3ccccc3)CC2)ccc1C (configuration not stated),–,"inconclusive [activator, full curve]"
Fc1ccccc1N1CCN(Cc2ccc3c(c2)OCO3)CC1,–,"inconclusive [activator, full curve]"
O=[N+]([O-])c1cccc(O)c1,inactive: 0.0947%,–
CC1=C[C@@H]2c3cccc4[nH]cc(c34)C[C@H]2N(C)C1,–,active: 2.82 µM
OC(COCc1ccc(Cl)cc1)CN1CC=C(c2ccccc2)CC1 (configuration not stated),–,active: 44.7 µM
Cn1c(=O)oc2cc(S(=O)(=O)NCCN3CCN(c4ccccc4)CC3)ccc21,–,"inconclusive [activator, full curve]"
CCCCCc1nc2c(c(=O)c3ccccc3n2C)c(=O)n1C1CCCCCC1,inactive: 3.08%,–

SMILES,activation,Potency
COc1c2c(cc3c1OCO3)CCN(C)C2,–,"inconclusive [activator, partial curve]"
CC(C)C[C@H]1C(=O)N2CCCC2[C@]2(O)O[C@](NC(=O)[C@@H]3C=C4c5cccc6[nH]cc(c56)CC4N(C)C3)(C(C)C)C(=O)N12 (some centres not stated),–,active: 0.282 µM
CCOC(=O)C1(Cc2ccc(Cl)cc2)CCN(C(C)CCn2cccn2)CC1 (configuration not stated),–,"inconclusive [activator, full curve]"
CCN(CC)C(=O)N[C@H]1C[C@@H]2c3cccc4[nH]cc(c34)C[C@H]2N(C)C1,–,active: 0.002 µM
CN1C[C@H](CO)C[C@@H]2c3cccc4[nH]cc(c34)C[C@H]21,–,"inconclusive [activator, full curve]"
CC(C)C[C@H]1C(=O)N2CCC[C@H]2[C@]2(O)O[C@](NC(=O)[C@@H]3C=C4c5cccc6[nH]cc(c56)C[C@H]4N(C)C3)(C(C)C)C(=O)N12,–,active: 1 µM
CC(=O)c1cccc(OCC(O)CN2CC=C(c3ccccc3)CC2)c1 (configuration not stated),–,"inconclusive [activator, full curve]"
NC1CCc2cc(O)c(O)cc2C1 (configuration not stated),–,active: 0.0141 µM
CCCN1CCO[C@@H]2c3cc(O)ccc3OC[C@H]21,–,active: 0.0708 µM
CC(=O)N1CCC(N2CCCC(C(=O)c3cccc(Cl)c3)C2)CC1 (configuration not stated),–,"inconclusive [activator, full curve]"
Clc1ccccc1N1CCN(Cc2ccc3c(c2)OCO3)CC1,–,"inconclusive [activator, partial curve]"
CCNCC(O)c1cccc(O)c1 (configuration not stated),–,"inconclusive [activator, full curve]"
CCC(CO)NC(=O)C1C=C2c3cccc4[nH]cc(c34)CC2N(C)C1 (configuration not stated),–,active: 7.08 µM
CC(C)C[C@H]1C(=O)N2CCC[C@H]2[C@]2(O)O[C@](NC(=O)[C@@H]3C=C4c5cccc6[nH]c(Br)c(c56)CC4N(C)C3)(C(C)C)C(=O)N12 (some centres not stated),–,active: 0.282 µM
CCCN1CC[C@@H]2c3cc(O)ccc3CC[C@@H]21,–,"inconclusive [activator, full curve]"
OC(CN1CC=C(c2ccccc2)CC1)c1ccccc1 (configuration not stated),–,"inconclusive [activator, partial curve]"
